The full ranking holds about 33,000 sequences; the median of “E-score (-0.5 to 0.5)” is about -0.04, and the highest 2% start at about 0.36. The list shows a part of the results.
Each sequence was assayed against T1, Hmlalpha2 (UniProt P0CY09) (assay: PBM E-score (8-mer binding enrichment) (E-score (-0.5 to 0.5)); higher = stronger / more preferred TF binding; most listed sequences are background and not binding sites). Settings: protein concentration: 200 nM; construct: GST-full length.
T1 sequence: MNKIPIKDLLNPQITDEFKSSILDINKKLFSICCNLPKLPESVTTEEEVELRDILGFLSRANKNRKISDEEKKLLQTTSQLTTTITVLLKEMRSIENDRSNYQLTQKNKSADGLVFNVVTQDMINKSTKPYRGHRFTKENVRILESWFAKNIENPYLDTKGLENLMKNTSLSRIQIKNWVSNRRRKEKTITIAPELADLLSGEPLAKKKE
Procedure: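 Universal 'all 10-mer' protein binding microarrays (Agilent AMADID 015681) probed with GST-tagged S. cerevisiae TFs (full-length or DBD) made by in vitro transcription/translation (PURExpress), about 100-200 nM. Bound TF was detected with fluorescent anti-GST. Each ungapped 8-mer (which stands for itself and its reverse complement) is scored by the PBM enrichment score (E-score), a modified Wilcoxon-Mann-Whitney statistic from -0.5 to +0.5, computed with the Universal PBM Analysis Suite. Scale: above 0.35 generally sequence-specific binding.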
In the case of TCCCCGCA, the “PBM E-score” value is reported as -0.18. In the case of CGGCTAGC, the “PBM E-score” value is reported as -0.207. GGCCAAAC was tested, and the “PBM E-score” value was -0.191. CATTGGCA was tested, and the “PBM E-score” value was -0.0452. AGTCTTGG was tested, and the “PBM E-score” value was -0.169. For AACTCACT, the “PBM E-score” value was 0.0592. With CAGATAGG the “PBM E-score” value was -0.315. With AGCGATAC the “PBM E-score” value was -0.0227. TCATGCAA was tested, and the “PBM E-score” value was 0.107. With CTGAATAC the “PBM E-score” value was 0.204. In the case of AAATCTCC, the “PBM E-score” value is reported as -0.309. In the case of CAGAAAAG, the “PBM E-score” value is reported as -0.076. In the case of AAGTCGAT, the “PBM E-score” value is reported as -0.189. AATCCAGC was tested, and the “PBM E-score” value was -0.184. In the case of CTGGAGAA, the “PBM E-score” value is reported as -0.295. In the case of CAATTCGG, the “PBM E-score” value is reported as -0.0581. With ACTCATCT the “PBM E-score” value was 0.0274. For GATACCCC, the “PBM E-score” value was -0.251. AGCCCCAA was tested, and the “PBM E-score” value was -0.28. In the case of CCTATGTC, the “PBM E-score” value is reported as 0.0957. In the case of CCACACTA, the “PBM E-score” value is reported as 0.0316. In the case of GAAATCGC, the “PBM E-score” value is reported as -0.165. In the case of ACGCGCAG, the “PBM E-score” value is reported as 0.074. For AACTGTTC, the “PBM E-score” value was -0.125. For CCCCCTAG, the “PBM E-score” value was -0.418. GGCAGGCA was tested, and the “PBM E-score” value was -0.26. In the case of GTGGACTA, the “PBM E-score” value is reported as 0.0385. For CCTCAAGC, the “PBM E-score” value was -0.233. For AAGCGGTG, the “PBM E-score” value was -0.0759. ACGCGCCT was tested, and the “PBM E-score” value was 0.21. With GTGCGGGA the “PBM E-score” value was -0.122. With CAAATAAA the “PBM E-score” value was 0.0807. With CCCATGAC the “PBM E-score” value was -0.031. In the case of AAGGTATT, the “PBM E-score” value is reported as 0.0101. In the case of ACCGGATA, the “PBM E-score” value is reported as -0.0648. AAAACGTT was tested, and the “PBM E-score” value was 0.0264. With CAATAGTC the “PBM E-score” value was -0.121. In the case of CTAATGAG, the “PBM E-score” value is reported as -0.145. ATGTTACC was tested, and the “PBM E-score” value was 0.317. In the case of ATAGCACG, the “PBM E-score” value is reported as 0.161. CCGCACGA was tested, and the “PBM E-score” value was -0.0762. In the case of AGTGCGCG, the “PBM E-score” value is reported as -0.259. In the case of GTGATCAA, the “PBM E-score” value is reported as 0.0788. In the case of AGCTCATA, the “PBM E-score” value is reported as -0.0273. For ACACAACT, the “PBM E-score” value was 0.317. In the case of AGGGAGCA, the “PBM E-score” value is reported as -0.421. For TTCGTAAA, the “PBM E-score” value was 0.162. With AGCATTGA the “PBM E-score” value was -0.135. CTGTAGGA was tested, and the “PBM E-score” value was -0.0922. With AAGCACTT the “PBM E-score” value was -0.0352. For AGAGCCAC, the “PBM E-score” value was -0.313. For AAGAGGCG, the “PBM E-score” value was -0.144. GCCTAGCC was tested, and the “PBM E-score” value was -0.262. With CGTGACCA the “PBM E-score” value was -0.0936. GCCCGTGA was tested, and the “PBM E-score” value was -0.279. GCGAGCCC was tested, and the “PBM E-score” value was -0.244. With AATAGTCG the “PBM E-score” value was -0.0552. For CCTAGATA, the “PBM E-score” value was -0.309. In the case of CGGTAACA, the “PBM E-score” value is reported as 0.269. With CTTTATGC the “PBM E-score” value was 0.00507. GCGTTAAC was tested, and the “PBM E-score” value was 0.379. With TTGTAAAA the “PBM E-score” value was 0.392. In the case of ACATCGAG, the “PBM E-score” value is reported as 0.0614. ACAGAAAT was tested, and the “PBM E-score” value was 0.107. For TCGAAGAA, the “PBM E-score” value was 0.0605. With CCCAGTAA the “PBM E-score” value was 0.0249. ACCTGTAA was tested, and the “PBM E-score” value was 0.108. AGGCTCAT was tested, and the “PBM E-score” value was -0.261. ACCAGAAA was tested, and the “PBM E-score” value was -0.00994. In the case of CCCTCCAA, the “PBM E-score” value is reported as -0.277. For AAGTGCAT, the “PBM E-score” value was 0.168. For ACTATCTG, the “PBM E-score” value was -0.156. For AAGTTAGA, the “PBM E-score” value was 0.178. For ACAAGGAG, the “PBM E-score” value was 0.204. For ATTCGCAG, the “PBM E-score” value was 0.0937. For ACAAGATG, the “PBM E-score” value was 0.187. For CGAGATAG, the “PBM E-score” value was -0.206. For CTTAAAAG, the “PBM E-score” value was -0.143. With TAATCCGA the “PBM E-score” value was -0.00201. In the case of CCATACAC, the “PBM E-score” value is reported as 0.145. For AGCGCGAG, the “PBM E-score” value was -0.144. With AAGCCACG the “PBM E-score” value was 0.0292. AAATTGGC was tested, and the “PBM E-score” value was -0.169. With AACGGCTG the “PBM E-score” value was -0.249. With GCCACACC the “PBM E-score” value was -0.0937. ATCACGTA was tested, and the “PBM E-score” value was 0.3. In the case of ATTTGTAG, the “PBM E-score” value is reported as 0.14. For GCACGTCA, the “PBM E-score” value was 0.047. In the case of CCTACAAC, the “PBM E-score” value is reported as 0.212. For CATGTTAG, the “PBM E-score” value was 0.422. For ATGATTTG, the “PBM E-score” value was 0.0537. For AGCCGGCA, the “PBM E-score” value was -0.27. With ATCTCAGG the “PBM E-score” value was -0.22. AGAGCGAT was tested, and the “PBM E-score” value was -0.256. With AGCCAACA the “PBM E-score” value was -0.00609. In the case of ACCAAAGC, the “PBM E-score” value is reported as -0.121. ACGCGTGC was tested, and the “PBM E-score” value was 0.189. AGGGTGGG was tested, and the “PBM E-score” value was -0.158. With CACTTTGA the “PBM E-score” value was -0.122. ACCCCTGC was tested, and the “PBM E-score” value was -0.264. In the case of GCAATGTA, the “PBM E-score” value is reported as 0.307. With CGAATTTA the “PBM E-score” value was 0.19. With GCATTGGC the “PBM E-score” value was -0.0488. With TAGGCATA the “PBM E-score” value was -0.107. AAGCGCCT was tested, and the “PBM E-score” value was -0.234. For GAGGGCCC, the “PBM E-score” value was -0.353. For TATTATGA, the “PBM E-score” value was 0.161. With GCCTGCCC the “PBM E-score” value was -0.337. For AACCGCGG, the “PBM E-score” value was -0.0547. With CTGAGTTA the “PBM E-score” value was 0.0212. In the case of CGGGAGGC, the “PBM E-score” value is reported as -0.259. ATTGGATC was tested, and the “PBM E-score” value was -0.0631. ACTAATCC was tested, and the “PBM E-score” value was -0.0716. TGGTACAA was tested, and the “PBM E-score” value was 0.0747. For CTCACGAA, the “PBM E-score” value was 0.0655. With AAATTGAA the “PBM E-score” value was 0.144. For AACTCGCA, the “PBM E-score” value was 0.182. For GCACATTA, the “PBM E-score” value was 0.196. In the case of AGGAGGGG, the “PBM E-score” value is reported as -0.269. In the case of ATATGGGA, the “PBM E-score” value is reported as -0.268. With CCTAGCCA the “PBM E-score” value was -0.135. For AAGAGAAC, the “PBM E-score” value was 0.0282. For CAAAGAAG, the “PBM E-score” value was 0.0771. CCATGGAG was tested, and the “PBM E-score” value was -0.261. In the case of GACAGAAA, the “PBM E-score” value is reported as 0.0409. AGCGGGTC was tested, and the “PBM E-score” value was -0.237. For GACAGCAC, the “PBM E-score” value was -0.0231. With AGGCAGGA the “PBM E-score” value was -0.197. For GTGCCGAA, the “PBM E-score” value was -0.0943. With CGCAGCAG the “PBM E-score” value was -0.0222. With AAGAACAG the “PBM E-score” value was 0.137. In the case of CGAGAGTC, the “PBM E-score” value is reported as -0.358. With AGTTGTAC the “PBM E-score” value was 0.167. AAGGAAAT was tested, and the “PBM E-score” value was 0.0212. For CGGCTTAC, the “PBM E-score” value was 0.102. In the case of ATCTGTCC, the “PBM E-score” value is reported as -0.114. ACTCCTCT was tested, and the “PBM E-score” value was -0.232. For CTATTCTC, the “PBM E-score” value was -0.192. In the case of CATACTAA, the “PBM E-score” value is reported as 0.203. CTGGGCAC was tested, and the “PBM E-score” value was -0.338. ACTGATAA was tested, and the “PBM E-score” value was -0.015. With CCGACGTC the “PBM E-score” value was -0.18. For TAGAGATA, the “PBM E-score” value was 0.0533. In the case of ACACTTAA, the “PBM E-score” value is reported as 0.292. With AACCCCGT the “PBM E-score” value was -0.196. In the case of ATGTAGGG, the “PBM E-score” value is reported as 0.0515. In the case of ACTGGATA, the “PBM E-score” value is reported as 0.0773. CTTGCTAC was tested, and the “PBM E-score” value was 0.0587. With ACGTGGTC the “PBM E-score” value was 0.163. With AGTTAATG the “PBM E-score” value was 0.157. For ATTAATCC, the “PBM E-score” value was 0.0267. With CCCACGCA the “PBM E-score” value was -0.0709. In the case of TCTGCTAA, the “PBM E-score” value is reported as 0.0237. With AATAATAG the “PBM E-score” value was -0.0525. In the case of GCCTACGC, the “PBM E-score” value is reported as 0.0424. CTCGCAAC was tested, and the “PBM E-score” value was 0.00749. For CATCGCGC, the “PBM E-score” value was -0.0632. In the case of AAAGTATG, the “PBM E-score” value is reported as 0.0804. CAAAAAAG was tested, and the “PBM E-score” value was 0.114. In the case of ACGTGGTA, the “PBM E-score” value is reported as 0.118. For CTTGACGA, the “PBM E-score” value was -0.023. GATACCAA was tested, and the “PBM E-score” value was 0.0659. In the case of TCGTTTCA, the “PBM E-score” value is reported as 0.00354. With CGAGTCGA the “PBM E-score” value was 0.0186. CGGGAGAG was tested, and the “PBM E-score” value was -0.224. In the case of ACATTGCC, the “PBM E-score” value is reported as 0.112. For AGCGAATC, the “PBM E-score” value was -0.0201. In the case of GATACTCC, the “PBM E-score” value is reported as -0.165. With GCCTAGAC the “PBM E-score” value was -0.134. With AAACAGTC the “PBM E-score” value was -0.0603. With CAGTATAA the “PBM E-score” value was 0.00393. CCCTGGAC was tested, and the “PBM E-score” value was -0.149.

Reference: the supplement of paper PMC3334620
